Test results from PubChem BioAssay AID1345083 (National Center for Advancing Translational Sciences (NCATS), 2018).
Out of some 94,000 compounds screened, about 6,200 (6.6%) were called active. The inconclusive results got no clear call from the source; some entries with a clear call stand among them for comparison. Calls come from the whole dose curve; as a rule, active = well fitted inhibition curve with a large enough effect; inconclusive = small, poorly fitted or top-dose-only effect; inactive = flat fitted curve, though single readings scatter. A potency beside an inconclusive call is a rough fit, not a confirmed value.

Assay: Cytotoxic Profiling in HEK 293 Cell Line of Diverse Libraries Using Quantitative High-Throughput Screening; note: nearly all actives have a fitted effect of over 60% in size
Conditions: HEK 293 viability, ATP luminescence (CellTiter-Glo), 48-72 h; series mostly up to 115 µM
Summary of the method: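 Viability of HEK 293 cells, plated at 250 cells/well, was judged by cellular ATP after compound treatment for 48 or 72 hr. Luminescence was imaged 10 min after CellTiter-Glo addition at room temperature.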
Potency is the fitted concentration of half-maximal effect; tags give direction and shape of the fitted curve.

With `COc1cccc(C(=O)Nc2cnc(-c3ccccc3)nc2)c1` as the compound, how does the Potency read?
Its Potency is inconclusive: 50.1 µM [inhibitor, partial curve, poor fit].

With `O=C(Nc1cccc(Cl)c1)c1ccc2nnc(-c3ccc(Cl)cc3)n2c1` as the compound, how does the Potency read?
The Potency was active: 39.8 µM.

With `Cc1cc(=O)n(CC(=O)Nc2cccc(C#N)c2)c(N2CCc3ccccc3C2)n1` as the compound, how does the Potency read?
The Potency was inconclusive: 44.7 µM [inhibitor, partial curve, poor fit].

With `CC(C)NC(=O)c1cc(-c2ccc(Cl)cc2Cl)nc2c1cnn2C` as the compound, how does the Potency read?
The Potency was “inactive”.

Which Potency does the source give for `COc1ccccc1CCC(=O)NC1CCN(C(=O)c2cc3c(=O)[nH]c(C)cn3n2)CC1` here?
The Potency was “inactive”.

For `Cc1ccc(OCC(=O)NCc2cccnc2N2CCOCC2)cc1`, which Potency is on record?
Its Potency is “inactive”.

Which Potency does the source give for `Cc1oc2ccn(Cc3ccccc3F)c(=O)c2c1C(=O)N1CCN(c2ccccc2)CC1` here?
The Potency was inconclusive: 50.1 µM [inhibitor, partial curve, poor fit].

With `O=C(CN1CCOCC1)N1CCNc2cnc(Nc3ccc(-n4ccnc4)cc3)nc2C1` as the compound, how does the Potency read?
The Potency was “inactive”.

For `COc1ccc(CN2Cc3[nH]nc(-c4cnc(OC)nc4)c3CC2=O)cc1`, which Potency is on record?
The Potency was “inactive”.

Which Potency does the source give for `O=C1CC(c2ccccc2)N(C(=O)CNC(=O)CN2CCCCCC2)CCCCCN1` (stereo not drawn) here?
The Potency was “inactive”.

With `Cc1ccc(Nc2ccnc(N3CCCC3C(=O)NCc3ccccc3Cl)n2)cc1` (stereo not drawn) as the compound, how does the Potency read?
Its Potency is inconclusive: 44.7 µM [inhibitor, partial curve, poor fit].

Which Potency does the source give for `COc1ncccc1-c1cnc2n[nH]c(-c3ccccc3C)c2n1` here?
Its Potency is inconclusive: 56.2 µM [inhibitor, full curve].

Which Potency does the source give for `Cc1ccc(CN2CCCC23Cc2ccccc2CNC3=O)cc1` (stereo not drawn) here?
The Potency was inconclusive: 89.1 µM [inhibitor, partial curve, poor fit].

Which Potency does the source give for `O=C(c1ccc2ncccc2c1)N1CCC2(CC1)Nc1ccccc1NC2=O` here?
The Potency was active: 89.1 µM.

With `CN(C)CC1(O)CCC2(CCN(C(=O)CCc3nc(-c4ccccc4)no3)CC2)CC1` as the compound, how does the Potency read?
The Potency was inconclusive: 89.1 µM [inhibitor, single point].

For `Cc1ccccc1C(=O)NCc1c[nH]c2ncccc12`, which Potency is on record?
Its Potency is “inactive”.

Which Potency does the source give for `O=C(CCc1c[nH]c2ccccc12)N1CCC2(CC1)CC(Cc1nc(C3CC3)no1)CCO2` (stereo not drawn) here?
Its Potency is inconclusive: 56.2 µM [inhibitor, partial curve, poor fit].

Which Potency does the source give for `CN(Cc1ccccc1)C(=O)c1cc(-c2cccc(C(F)(F)F)c2)nc2c1cnn2C` here?
The Potency was inconclusive: 50.1 µM [inhibitor, partial curve, poor fit].

For `CCN1C(=O)CCN(Cc2ccc(F)c(F)c2)CC12CCOCC2`, which Potency is on record?
The Potency was “inactive”.

For `CN(C)c1ccc(C(=O)N2CCN(c3nnc4ccccn34)CC2)cc1`, which Potency is on record?
Its Potency is “inactive”.

For `O=S(=O)(c1ccc2c(c1)OCCO2)N1CC[C@@H]2COCCN(Cc3cccnc3)[C@@H]2C1`, which Potency is on record?
Its Potency is inconclusive: 89.1 µM [inhibitor, single point].

Which Potency does the source give for `COCCNC(=O)CC[C@]12CC[C@](C)(O)C[C@H]1C(C)(C)C[C@@H]2NC1CCN(C(C)=O)CC1` here?
The Potency was “inactive”.

Which Potency does the source give for `CC(C)CNC(=O)c1cc(-c2cccnc2)nc2c1cnn2C` here?
Its Potency is inconclusive: 126 µM [inhibitor, single point].

Which Potency does the source give for `COc1ccc(CNC(=O)N2c3ccccc3CC2c2nc(C3CC3)no2)cc1` (stereo not drawn) here?
Its Potency is inconclusive: 70.8 µM [inhibitor, partial curve, poor fit].

Which Potency does the source give for `COc1cc(OC)cc(C(=O)Nc2cccc(-c3nnc4n3CCCC4)c2)c1` here?
Its Potency is inconclusive: 70.8 µM [inhibitor, single point].

With `COc1ccc(-c2cc(NCCO)nc3[nH]ccc23)cc1C(F)(F)F` as the compound, how does the Potency read?
The Potency was active: 39.8 µM.

For `c1csc(CN2Cc3[nH]cnc3C[C@H]2c2nc(-c3ccc4ccccc4c3)no2)c1`, which Potency is on record?
The Potency was active: 50.1 µM.

With `CN(C)C(=O)c1cccnc1OC1CCN(C(=O)CC2CCCCC2)C1` (stereo not drawn) as the compound, how does the Potency read?
The Potency was inconclusive: 31.6 µM [inhibitor, full curve].

With `CCCCn1c(=O)c(C(=O)N2CCC(c3ccccc3)CC2)nc2cccnc21` as the compound, how does the Potency read?
The Potency was inconclusive: 89.1 µM [inhibitor, single point].

With `COc1cc(Cl)ccc1C(=O)NC1CCN(c2cc(-c3ccc(F)cc3)[nH]n2)C1` (stereo not drawn) as the compound, how does the Potency read?
The Potency was inconclusive: 50.1 µM [inhibitor, partial curve, poor fit].

Which Potency does the source give for `CN(Cc1cccc(C(F)(F)F)c1)Cc1cncs1` here?
The Potency was “inactive”.

For `Cc1ccccc1C(=O)N1CC(c2nc(CCc3ccccc3)no2)C1`, which Potency is on record?
The Potency was inconclusive: 50.1 µM [inhibitor, partial curve, poor fit].

With `O=C(C[C@H]1NC(=O)c2ccccc2NC1=O)Nc1ccc(Cn2cncn2)cc1` as the compound, how does the Potency read?
The Potency was “inactive”.

For `CC(C)c1nnnn1[C@H]1CO[C@H]2[C@@H]1OC[C@H]2OC(=O)Nc1ccc(Oc2ccccc2)cc1`, which Potency is on record?
Its Potency is inconclusive: 44.7 µM [inhibitor, partial curve, poor fit].

Which Potency does the source give for `CCn1cc(S(=O)(=O)N2CC(Oc3ccccc3-c3noc(C)n3)C2)cn1` here?
The Potency was “inactive”.

For `Cc1ccc(C(=O)N2CCC3(CC2)N=C(c2ccc(Br)cc2)NO3)cc1`, which Potency is on record?
Its Potency is inconclusive: 35.5 µM [inhibitor, full curve].

With `CS(=O)(=O)N1CCC(Oc2ccc(C(=O)NCCc3ccccn3)cc2Cl)CC1` as the compound, how does the Potency read?
The Potency was inconclusive: 50.1 µM [inhibitor, partial curve, poor fit].

With `O=C(C1CCC1)N1CCC2(CC1)CC(Cc1nc(-c3cnccn3)no1)CCO2` (stereo not drawn) as the compound, how does the Potency read?
Its Potency is inconclusive: 56.2 µM [inhibitor, partial curve, poor fit].

For `CC(C)c1noc(-c2cccn3c(CNC(=O)c4cc(F)ccc4F)nnc23)n1`, which Potency is on record?
Its Potency is “inactive”.

With `COc1nc2nc(CCc3ccccc3)n(C)c2cc1-c1ccncc1` as the compound, how does the Potency read?
The Potency was inconclusive: 100 µM [inhibitor, partial curve].

With `CCOc1ncccc1C(=O)N1CCN(Cc2ccccc2)CC(O)C1` (stereo not drawn) as the compound, how does the Potency read?
Its Potency is “inactive”.

For `Cc1nn(-c2cccc(Br)c2)c(C)c1[C@@H]1C=C[C@@H](NS(C)(=O)=O)C1`, which Potency is on record?
Its Potency is inconclusive: 70.8 µM [inhibitor, partial curve, poor fit].

For `O=C(c1nccc2ccccc12)N1CCC2(CC1)CC(Cc1nc(C3CC3)no1)CCO2` (stereo not drawn), which Potency is on record?
Its Potency is inconclusive: 44.7 µM [inhibitor, partial curve, poor fit].
